Source: PubChem BioAssay AID2546 (National Center for Advancing Translational Sciences (NCATS), 2010)
The campaign covered roughly 310,000 compounds. About 11,000 (3.5%) were called active. The inconclusive results got no clear call from the source; some entries with a clear call stand among them for comparison. Calls follow the shape of the dose curve; as a rule, active = well fitted inhibition curve with a large enough effect; inconclusive = small, poorly fitted or top-dose-only effect, or effect the other way; inactive = flat fitted curve, though single readings scatter. Potencies of inconclusive entries are left out as doubtful fits.

Test: VP16 counterscreen qHTS for inhibitors of ROR gamma transcriptional activity;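 also: Gal4-VP16 expression switched on by copper sulfate through the metallothionein promoter; nearly all actives have a fitted effect of over 50% in size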
Conditions: Drosophila S2 Gal4-VP16 UAS-luciferase, luminescence, 20 h; activity, negative = inhibition: at 53.6 µM (top of the series)
% is scaled to controls: 0 for no effect and ±100 for the full control effect; potency is read from the fitted curve at half-maximal effect; tags tell the direction and shape of the fitted curve.

Row | Compound | Potency | activity, negative = inhibition
1 | COc1ccc2nc(Nc3nc4ccc(NC(C)=O)cc4s3)sc2c1 | active: 7.08 µM | 
2 | O=C(c1ccc(Cl)cc1)N1N=C(c2ccccn2)CC1(O)C(F)(F)F (stereo not given) | active: 4.47 µM | 
3 | CC(C)N1CCc2c(sc(NC(=O)c3cc4cc([N+](=O)[O-])ccc4s3)c2C(N)=O)C1 | inconclusive [inhibitor, single point] | 
4 | Cc1ccn2c(NCc3ccccc3)c(-c3cccs3)nc2c1 | inconclusive [inhibitor, single point] | 
5 | COc1ccc(-c2cc(C(=O)c3c(N)n(C)c(=O)n(C)c3=O)c3ccccc3n2)cc1 | active: 11.2 µM | 
6 | Cc1cccc2sc(NNC(=O)c3ccc(S(=O)(=O)N4CCc5ccccc5C4)cc3)nc12 | inconclusive [inhibitor, single point] | 
7 | CC(NC(N)=O)C(=O)Nc1ccc(Cl)c(S(=O)(=O)Nc2ccc(Br)cc2)c1 (stereo not given) | active: 3.16 µM | 
8 | Cc1ccc(C(=O)Nc2nnc(S(=O)(=O)N3CCC(C)CC3)s2)cc1 | inconclusive [inhibitor, full curve, poor fit] | 
9 | CC(/C=N/NC(=O)CSc1nnc(SCc2ccccc2)s1)=C\c1ccco1 | inconclusive [inhibitor, single point] | 
10 | CCCc1nc(SCC(=O)N2CCC(Cc3ccccc3)CC2)c2c(=O)n(C)c(=O)n(C)c2n1 |  | inactive: -21.1%
11 | COc1ccc(N2C(=O)CSC2c2cccc(F)c2)cc1 (stereo not given) |  | inactive: -5%
12 | O=c1/c(=C/c2ccccn2)sc2nc3ccccc3n12 | inconclusive [inhibitor, single point] | 
13 | CSc1ncccc1C(=O)Nc1ccncc1 | inconclusive [inhibitor, single point] | 
14 | CCC(=O)N1N=C(c2ccc(NS(C)(=O)=O)cc2)CC1c1ccc(C)cc1 (stereo not given) | inconclusive [inhibitor, partial curve] | 
15 | CCc1ccc(-n2c(C)n[nH]c2=S)cc1 | inconclusive [inhibitor, single point] | 
16 | Clc1cccc(Cl)c1/C=C/c1nc2ccccc2[nH]1 | inconclusive [inhibitor, single point] | 
17 | Cc1c(C(=O)N2CCOCC2)sc(NC(=O)c2ccccc2F)c1C#N |  | inactive: -7.96%
18 | S=c1nccc(-c2ccc(Cl)cc2)[nH]1 | active: 5.01 µM | 
19 | CC(=O)c1c(N2CCN(Cc3ccccc3)CC2)[nH]c(-c2ccccc2)nc1=S | inconclusive [inhibitor, single point] | 
20 | O=C(CSc1nnnn1C1CCCCC1)Nc1nc2c(s1)CCCC2 |  | inactive: 7.57%
21 | CC(=O)Nc1ccc(-c2nnc(SCC(=O)c3ccc4c(c3)Cc3ccccc3-4)n2C)cc1 | inconclusive [inhibitor, single point] | 
22 | O=C(Cc1ccc(Cl)cc1Cl)Nc1ccncc1Cl | active: 5.62 µM | 
23 | C=C1C[C@H](OC(=O)C(C)(O)CCl)C2C(=C)C(=O)O[C@@H]2C2C1C[C@H](O)[C@]2(O)CCl (stereo not given in full) | inconclusive [inhibitor, single point] | 

Row | Compound | Potency | activity, negative = inhibition
24 | CS/C(N)=N/N=C/c1c(O)ccc2ccccc12 | active: 7.08 µM | 
25 | COc1nccnc1NS(=O)(=O)c1ccc(NC(=O)c2cccc(C)c2)cc1 |  | inactive: -8.7%
26 | S=c1[nH]nc(COc2ccccc2)n1/N=C/c1cccnc1 | inconclusive [inhibitor, partial curve, poor fit] | 
27 | CCCCCN(C(=O)CCC(=O)OCc1ccccc1C(F)(F)F)c1c(N)n(CCCC)c(=O)[nH]c1=O |  | inactive: -15.1%
28 | Cc1ccccc1CN(C)Cc1cc(=O)oc2c(C)c(C)ccc12 | inconclusive [inhibitor, single point] | 
29 | CC(CNC(=S)Nc1cc(F)cc(F)c1)CSc1ccc(Cl)cc1 (stereo not given) | inconclusive [inhibitor, single point] | 
30 | CC(C)OCCCn1c(=S)[nH]c2ncccc2c1=O | inconclusive [inhibitor, single point] | 
31 | Cc1nnc(N/N=C/c2ccc(Br)cc2)n1N | inconclusive [inhibitor, single point] | 
32 | CC(=C/c1ccc(C(C)C)cc1)/C=N/NC(=O)Cn1nc(C)cc1C | inconclusive [inhibitor, single point] | 
33 | CCOC(=O)c1c(NC(NC(C)=O)C(Cl)(Cl)Cl)sc2c1CCCC2 (stereo not given) |  | inactive: -16.2%
34 | Cc1cnc(NC(=O)CSc2ncn(-c3ccccc3)n2)s1 | inconclusive [inhibitor, partial curve, poor fit] | 
35 | Cc1ccc(-c2noc(CCCC(=O)NC3CCCC3)n2)cc1 | inconclusive [inhibitor, single point] | 
36 | Cc1cccc(C(=O)NC(=S)Nc2ccc(S(=O)(=O)N3CCN(C)CC3)cc2)c1 | inconclusive [inhibitor, single point] | 
37 | COc1cc(/C=N/NS(=O)(=O)c2ccc(C)cc2)ccc1OCc1ccc(C(=O)O)cc1 | inconclusive [inhibitor, single point] | 
38 | CCOc1ccc(N(CC(=O)N/N=C/c2cc([N+](=O)[O-])ccc2Cl)S(C)(=O)=O)cc1 |  | inactive: -3.32%
39 | COc1cccc(Nc2c([N+](=O)[O-])cncc2[N+](=O)[O-])c1 | inconclusive [inhibitor, single point] | 
40 | O=C(Cc1ccccc1[N+](=O)[O-])NCCCc1ccccc1 |  | inactive: -3.48%
41 | CC(C)C(=O)NC(c1cccc([N+](=O)[O-])c1)c1ccc2cccnc2c1O (stereo not given) | active: 2.51 µM | 
42 | C=CCOc1nc2c(c(=O)n(C)c(=O)n2C)n1Cc1ccc(Cl)cc1Cl | inconclusive [inhibitor, single point] | 
43 | Cc1cc(C(=O)N(C)C)sc1-c1ccccc1 | inconclusive [activator, full curve, poor fit] | 
44 | CCOC(=O)c1c(-c2ccc(OC)cc2)csc1NC(=O)COc1ccc2c(C)cc(=O)oc2c1 | inconclusive [inhibitor, partial curve, poor fit] | 
45 | O=C(c1ccc(-c2ccccc2)c(F)c1)C1CCCN(C(=O)c2cncs2)C1 (stereo not given) | inconclusive [inhibitor, single point] | 
